Data as given in PubChem BioAssay AID686978 (National Center for Advancing Translational Sciences (NCATS), 2013).
Out of some 420,000 compounds screened, about 64,000 (15%) were called active. The inconclusive results got no clear call from the source; some entries with a clear call stand among them for comparison. Calls follow the shape of the dose curve; as a rule, active = well fitted inhibition curve with a large enough effect; inconclusive = small, poorly fitted or top-dose-only effect; inactive = flat fitted curve, though single readings scatter. Potencies of inconclusive entries are left out as doubtful fits.

assay: qHTS for Inhibitors of human tyrosyl-DNA phosphodiesterase 1 (TDP1): qHTS in cells in absence of CPT; details: DT40 Tdp1-/- hTDP1 cells, no CPT, ATP luminescence, 48 h; activity change, negative = growth inhibition: at 46.2 µM (top of the series) unless noted; also: nearly all actives have a fitted effect of over 55% in size
How it was run: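 Chicken DT40 Tdp1-/- cells stably complemented with human TDP1 were seeded at 400 cells/well with DMSO in place of 20 nM camptothecin. After compound pinning, cells grew at least 48 hr at 37 °C; viability read by CellTiter-Glo luminescence.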
% is scaled to controls: 0 for no effect and ±100 for the full control effect; potency is read from the fitted curve at half-maximal effect; tags tell the direction and shape of the fitted curve.

Row | SMILES | Potency | activity change, negative = growth inhibition
1 | Cc1ccc(S(=O)(=O)N(C)CC(=O)N2CCN(Cc3ccc4c(c3)OCO4)CC2)cc1 | inconclusive [inhibitor, partial curve] | 
2 | Oc1c(C(c2ccccc2)N2CCN(Cc3ccccc3)CC2)sc2nc(-c3ccco3)nn12 (stereo not given) | inconclusive [inhibitor, single point] | 
3 | Cc1ccc(CNC(=O)C2CCN(S(=O)(=O)N3CCC(C)CC3)CC2)cc1 | inconclusive [inhibitor, single point] | 
4 | CC(C)C/C(O)=C/c1nc2cc(Cl)ccc2oc1=O | inconclusive [inhibitor, single point] | 
5 | Cc1cc(=O)[nH]c(NN)n1 | inconclusive [inhibitor, single point] | 
6 | COc1ccc(-c2ccc(NS(=O)(=O)c3cc([N+](=O)[O-])ccc3C)cc2)nn1 |  | inactive: -14.5%
7 | COc1ccccc1CNC(=O)C(=O)NCC(c1cccs1)S(=O)(=O)c1ccc(F)cc1 (stereo not given) | inconclusive [inhibitor, single point] | 
8 | Cc1cc(C)cc(C(=O)N(C)[C@H](Cc2ccc(-c3ccccc3)cc2)C(=O)N[C@@H](Cc2c[nH]c3ccccc23)C(=O)O)c1 |  | inactive: -24.7%
9 | CC1=C(C(=O)OCC2CCCCC2)C(c2ccc(F)cc2F)CC(=O)N1 (stereo not given) | inconclusive [inhibitor, single point] | 
10 | Cc1ccc(OCC(=O)c2ccc3c(c2)CCCC3)cc1C | inconclusive [inhibitor, partial curve, poor fit] | 
11 | CCCCCOCC1CC(C/C(C)=N/Nc2nc(-c3ccccc3)cs2)C(=O)O1 (stereo not given) |  | inactive: -8.61%
12 | COc1cc(Cl)c(C)cc1NC(=O)CCc1nc2cccnc2n1-c1ccccc1 | inconclusive [inhibitor, single point] | 
13 | O=C(COc1ccc(/C=N/NC(=O)c2cc3ccccc3o2)cc1Cl)Nc1ccccc1 | active: 6.51 µM | 
14 | Cc1ccc(S(=O)(=O)N(CC(=O)NCc2cccnc2)c2ccc(F)cc2)cc1 | active: 18.4 µM | 
15 | COc1ccc(C(C#N)=Cc2ccccc2OC)cc1 | active: 5.17 µM | 
16 | C[C@@H]1CN([C@@H](C)CO)S(=O)(=O)c2ccc(Br)cc2O[C@H]1CN(C)Cc1ccncc1 | inconclusive [inhibitor, partial curve, poor fit] | 
17 | COc1ccccc1/C=C/C1(C(=O)NC2CCCC2)CC(=O)N1c1ccc(C)cc1 (stereo not given) | active: 23.1 µM | 
18 | Cc1nn2c(-c3cccc(NC(=O)CN4CCOCC4)c3)nnc2c2ccccc12 | active: 12.6 µM | 
19 | CCOc1ncccc1C(=O)N1CCN(S(=O)(=O)c2ccc(Br)cc2Cl)CC1 | inconclusive [inhibitor, single point] | 
20 | O=S(=O)(NCC1CCCO1)c1ccc(S(=O)(=O)N(Cc2ccc(F)cc2)Cc2ccco2)cc1 (stereo not given) | inconclusive [inhibitor, single point] | 
21 | CCn1c(CCNC(=O)c2cccs2)nnc1SCC(=O)Nc1nc(-c2ccccc2)cs1 | active: 10.3 µM | 
22 | COc1ccc(NC(=O)Cn2c(SCc3cccc(Cl)c3)nc3ccncc32)c(OC)c1OC | inconclusive [inhibitor, single point] | 
23 | O=C(Nc1ccccc1C(=O)N/N=C/c1ccco1)c1ccc(Cl)cc1 | inconclusive [inhibitor, single point] | 

Row | SMILES | Potency | activity change, negative = growth inhibition
24 | C/C(=N/NC(=O)c1cc(-c2ccc(Br)s2)[nH]n1)c1ccco1 | inconclusive [inhibitor, partial curve, poor fit] | 
25 | O=C(NCCSc1ncc(-c2ccc(F)cc2)[nH]1)c1ccco1 | inconclusive [inhibitor, partial curve] | 
26 | Cc1ccccc1NC(=S)NC(NC(=O)COc1ccccc1)C(Cl)(Cl)Cl (stereo not given) | inconclusive [inhibitor, single point] | 
27 | COCCNc1nc(C)cc(-c2cc(C(=O)NCc3ccccc3)on2)n1 |  | inactive: 2.02%
28 | CC(=O)c1cc(CN2CCN(CCC(C)C)C(CCO)C2)cs1 (stereo not given) | inconclusive [inhibitor, single point] | 
29 | NC(=O)C1CCN(C(=O)c2ccc(Cl)c(S(=O)(=O)N3CCc4ccccc43)c2)CC1 | inconclusive [inhibitor, single point] | 
30 | CCN(CC)CCCN(C(=O)Cn1nnc(-c2ccc(OC)c(OC)c2)n1)C(C(=O)NC(C)(C)C)c1ccc(F)cc1 (stereo not given) | inconclusive [inhibitor, single point] | 
31 | Cn1c(=O)cc(SCC(=O)NCc2ccc(F)cc2)c2ccc(Cl)cc21 | active: 3.26 µM | 
32 | Cc1c(C=O)n(C)n(-c2ccccc2)c1=O |  | inactive: -0.628%
33 | Cc1nnc(NC(=O)C2CCCN2S(=O)(=O)c2ccc(Cl)cc2)s1 (stereo not given) |  | inactive: 1.05%
34 | CCOC(=O)N1CCC(NS(=O)(=O)c2cc(C(=O)OC)n(C)c2)CC1 |  | inactive: -7.19%
35 | CCOc1ccccc1NC(=O)CCn1c(-c2ccc(OC)cc2)cc(C(C)=O)c1C | inconclusive [inhibitor, single point] | 
36 | COc1ccc2sc(C)[n+](C)c2c1 | active: 18.4 µM | 
37 | Cc1nc([N+](=O)[O-])cn1CC(=O)c1ccc2c(c1)OCCCO2 | inconclusive [inhibitor, single point] | 
38 | O=C(NC1CCCC1)c1cc(-c2ccccc2)nc2ccccc12 | inconclusive [inhibitor, single point] | 
39 | CC(Oc1ccccc1)C(=O)NC1=NCCS1 (stereo not given) |  | inactive: -7.57%
40 | O=C(Nc1cc(C(F)(F)F)ccc1Cl)C(Sc1nnc(-c2cccs2)o1)c1ccccc1 (stereo not given) |  | inactive: -0.877%
41 | Cc1ccccc1-c1cc(C(=O)NCc2cccs2)nn1CC1CC(c2cccc([N+](=O)[O-])c2)=NO1 (stereo not given) | active: 16.4 µM | 
42 | COc1cccc(N(C(=O)c2snc(C(N)=O)c2N)C(C(=O)NCC2CCCO2)c2cccs2)c1 (stereo not given) | active: 16.4 µM | 
43 | O=C(O)c1ccccc1OCCOc1ccccc1 |  | inconclusive: -0.409% [inhibitor]
44 | COc1cc2c(C(=O)N3CCN(c4ccccc4F)CC3)cn(C)c(=O)c2cc1OC |  | inactive: -23.6%
45 | O=C(Nc1ccc(Nc2ccncc2)cc1)c1ccc([N+](=O)[O-])cc1 | active: 14.6 µM | 
